From publication PMC11043394
These are yes or no findings as the source states them, for the method shown. Binding seen in cells or lysates may run through a third protein. Some binding calls cover weakened binding; strength is not graded here. For some assays here: Tags and fused reporters may be left off the sequences shown. One block for each molecule: values may come before it.

Protein sequences, listed by entry. Tags and fused reporters are not part of them.
UniProt P51812: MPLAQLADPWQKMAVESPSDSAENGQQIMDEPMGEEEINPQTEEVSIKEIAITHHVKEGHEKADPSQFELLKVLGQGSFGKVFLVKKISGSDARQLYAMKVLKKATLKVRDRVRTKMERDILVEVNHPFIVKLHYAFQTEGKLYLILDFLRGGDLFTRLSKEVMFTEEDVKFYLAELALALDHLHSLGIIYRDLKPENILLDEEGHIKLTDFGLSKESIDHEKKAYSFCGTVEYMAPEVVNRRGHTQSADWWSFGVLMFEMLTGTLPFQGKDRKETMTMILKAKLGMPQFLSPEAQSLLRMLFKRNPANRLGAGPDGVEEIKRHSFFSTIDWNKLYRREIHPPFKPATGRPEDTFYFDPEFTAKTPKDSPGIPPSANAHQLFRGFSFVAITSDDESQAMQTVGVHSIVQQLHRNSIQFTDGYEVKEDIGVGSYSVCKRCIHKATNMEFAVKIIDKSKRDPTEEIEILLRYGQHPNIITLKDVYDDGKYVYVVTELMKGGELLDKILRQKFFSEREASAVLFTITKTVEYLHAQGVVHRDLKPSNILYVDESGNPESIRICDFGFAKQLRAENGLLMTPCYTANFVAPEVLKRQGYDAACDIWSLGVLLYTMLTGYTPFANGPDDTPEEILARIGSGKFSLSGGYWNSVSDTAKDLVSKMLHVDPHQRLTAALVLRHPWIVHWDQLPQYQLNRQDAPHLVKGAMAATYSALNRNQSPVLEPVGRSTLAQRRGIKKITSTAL
UniProt P18654: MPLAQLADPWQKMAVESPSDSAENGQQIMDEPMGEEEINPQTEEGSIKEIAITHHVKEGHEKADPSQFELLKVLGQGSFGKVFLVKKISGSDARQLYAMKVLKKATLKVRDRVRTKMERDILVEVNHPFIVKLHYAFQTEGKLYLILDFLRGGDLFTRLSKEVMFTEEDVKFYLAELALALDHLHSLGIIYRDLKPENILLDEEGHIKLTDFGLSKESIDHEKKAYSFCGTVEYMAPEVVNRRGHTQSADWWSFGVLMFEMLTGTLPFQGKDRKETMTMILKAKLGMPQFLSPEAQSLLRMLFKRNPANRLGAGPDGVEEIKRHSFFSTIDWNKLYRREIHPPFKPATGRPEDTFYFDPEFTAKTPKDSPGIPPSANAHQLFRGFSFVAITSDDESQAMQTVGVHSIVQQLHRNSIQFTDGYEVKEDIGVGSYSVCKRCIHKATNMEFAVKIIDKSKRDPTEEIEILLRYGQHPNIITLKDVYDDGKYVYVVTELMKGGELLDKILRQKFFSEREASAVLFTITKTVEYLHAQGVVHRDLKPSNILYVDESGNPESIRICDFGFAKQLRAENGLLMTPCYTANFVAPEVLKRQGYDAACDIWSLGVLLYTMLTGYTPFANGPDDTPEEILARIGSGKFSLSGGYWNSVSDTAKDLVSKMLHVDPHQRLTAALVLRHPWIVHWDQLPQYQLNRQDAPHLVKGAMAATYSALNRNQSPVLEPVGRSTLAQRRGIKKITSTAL

Legend:
[1] = biological target: HA-RSK2 (p90 ribosomal S6 kinase 2) (UniProt P51812); assay: co-IP; HEK293T lysates (200 µg) transiently expressing HA-RSK2 and a Flag-FOXO construct; NP-40 lysis buffer (50 mM Tris-HCl pH 8.0, 120 mM NaCl, 0.5% NP-40); HA-antibody beads overnight at 4 °C; NETN wash; Western blot
GST-RSK2 = GST-RSK2 (UniProt P51812); assay: pull-down; GST-RSK2 from E. coli bound to glutathione beads; cell lysates transiently expressing Flag-FOXO1 or Flag-FOXO4; ex vivo pull-down, Western blot with Flag-specific antibodies; only the target purified
GST-FOXO4 = GST-FOXO4 (UniProt P98177); assay: pull-down; GST-FOXO4 from E. coli on GST-sepharose beads; B16F10 cell lysate; bound endogenous RSK2 seen by Western blot (ex vivo pull-down); only the target purified

Molecule: Flag-FOXO4 deletion mutant to residue 180 (FOXO4 1-180) (from UniProt P98177 1-180) (domain or fragment)
binding [1]: binds

Molecule: Flag-FOXO4-wt (forkhead box protein O4, from pCS2 + N-Flag-FOXO4) (from UniProt P98177 1-505)
binding [1]: binds
binding (GST-RSK2): binds

Now from value to molecule:

binding (GST-FOXO4): binds
Molecule: endogenous RSK2 of B16F10 mouse melanoma cells (from UniProt P18654 1-740) (enzyme)

binding [1]: no binding
B1: Flag-FOXO4-1-100 (domain or fragment, UniProt P98177 1-100)
chain: MDPGNENSATEAAAIIDLDPDFEPQSRPRSCTWPLPRPEIANQPSEPPEVEPDLGEKVHTEGRSEPILLPSRLPEPAGGPQPGILGAVTGPRKGGSRRNA
